Laboratory results as given in the supplement of paper PMC6135742.
Where a name gives a salt, the structure may show the parent alone. ± gives the standard deviation of the averaged measurements. Whole data set: some 2,600 compounds, median “total cell number (DAPI+ nuclei) relative to DMSO vehicle control” near -1.4, cut for the lowest 2% near -23. Some of the results follow.

system: jimpy (Plp1 jimpy) mouse iPSC-derived oligodendrocyte progenitor cells; experiment: total cell number (DAPI+ nuclei) relative to DMSO vehicle control (SDs above negative control mean); higher = more surviving cells; conditions: 10 µM; 3 days

Which total cell number does the source give for `O=C(C=Cc1ccccc1)NC(NC(=S)Nc1ccc(Cl)cc1)C(Cl)(Cl)Cl` (centres undefined) here?
Its total cell number is -2.46.

Which total cell number does the source give for `CN[C@@H]1[C@H](O[C@H]2[C@H](O[C@H]3[C@H](O)[C@@H](O)[C@H](N=C(N)N)[C@@H](O)[C@@H]3N=C(N)N)O[C@@H](C)[C@]2(O)C=O)O[C@@H](CO)[C@H](O)[C@H]1O` [Streptomycin sulfate] here?
Its total cell number is -1.22.

With `Nc1nc(Cl)nc2c1ncn2[C@H]1C[C@H](O)[C@@H](CO)O1` [Cladribine] as the compound, how does the total cell number read?
Its total cell number is -22.8.

How did the total cell number turn out when `OCCOCCN1CCN(C2=Nc3ccccc3Sc3ccccc32)CC1` [Quetiapine Fumarate] was run?
Its total cell number is -6.87.

How did the total cell number turn out when `Cc1cc(C(=O)NOCCO)c(Nc2ccc(I)cc2F)n(C)c1=O` was run?
Its total cell number is -8.75.

`Cn1cnc2c(NCc3ccccc3)nc(NCCO)nc21` [Olomoucine] was tested. Which total cell number did it give?
Its total cell number is 1.01.

For `CC1(C)S[C@@H]2[C@H](NC(=O)[C@H](N)c3ccc(O)cc3)C(=O)N2[C@H]1C(=O)O` [Amoxicillin Sodium], which total cell number is on record?
The total cell number was -0.368.

How did the total cell number turn out when `CC1(C)S[C@@H]2[C@H](NC(=O)[C@H](N)c3ccc(O)cc3)C(=O)N2[C@H]1C(=O)O` [Amoxicillin] was run?
Its total cell number is -1.32.

With `COc1cccc2c1C(=O)c1c(O)c3c(c(O)c1C2=O)C[C@@](O)(C(=O)CO)C[C@@H]3O[C@H]1C[C@H](N)[C@H](O)[C@H](C)O1` [Doxorubicin (Adriamycin)] as the compound, how does the total cell number read?
The total cell number was 1.92.

How did the total cell number turn out when `N#Cc1c(O)c2c(-c3ccc(-c4ccccc4O)cc3)csc2[nH]c1=O` was run?
Its total cell number is 0.298.

With `CCCCC(=O)O[C@H]1CC[C@H]2[C@@H]3CCc4cc(O)ccc4[C@H]3CC[C@]12C` [Estradiol valerate] as the compound, how does the total cell number read?
The total cell number was -1.15.

`Cc1[nH]c2ccccc2c1CCNC(=O)c1cccs1` was tested. Which total cell number did it give?
Its total cell number is -3.09.

How did the total cell number turn out when `N=C(N)c1ccc(OCCCCCOc2ccc(C(=N)N)cc2)cc1` [Pentamidine isethionate] was run?
The total cell number was -7.16.

`N=C(N)c1ccc(OCCCCCOc2ccc(C(=N)N)cc2)cc1` [Pentamidine] was tested. Which total cell number did it give?
Its total cell number is -7.31.

`Fc1ccc(C(c2ccc(F)cc2)N2CCN(C/C=C/c3ccccc3)CC2)cc1` [Flunarizine dihydrochloride] was tested. Which total cell number did it give?
Its total cell number is -7.03.

Which total cell number does the source give for `Fc1ccc(C(c2ccc(F)cc2)N2CCN(C/C=C/c3ccccc3)CC2)cc1` [Flunarizine 2HCl] here?
Its total cell number is -7.08.

For `Oc1ccc([C@H]2COc3cc(O)ccc3C2)cc1` [Equol], which total cell number is on record?
Its total cell number is 0.365.

Which total cell number does the source give for `O=c1cc(-c2cccc3c2Sc2ccccc2S3)oc(N2CCOCC2)c1` here?
The total cell number was -7.57.

With `Cc1ccc(Nc2c(F)cccc2Cl)c(CC(=O)O)c1` [Lumiracoxib] as the compound, how does the total cell number read?
Its total cell number is -1.07.

Which total cell number does the source give for `CCCc1cc(=O)[nH]c(=S)[nH]1` [Propylthiouracil] here?
The total cell number was -0.866.

How did the total cell number turn out when `Cc1onc(-c2ccccc2)c1-c1ccc(S(N)(=O)=O)cc1` [Valdecoxib] was run?
The total cell number was 3.38.

For `C=C1C(=O)O[C@@H]2/C=C(\C)CC/C=C(\C)CC[C@@H]12` [Costunolide], which total cell number is on record?
Its total cell number is -21.

For `O=C(Nc1ccccc1)c1cc([N+](=O)[O-])ccc1Cl`, which total cell number is on record?
Its total cell number is -3.05 ± 0.71.

Which total cell number does the source give for `CO/N=C(\C(=O)N[C@@H]1C(=O)N2C(C(=O)OCOC(=O)C(C)(C)C)=C(/C=C\c3scnc3C)CS[C@H]12)c1csc(N)n1` [Cefditoren Pivoxil] here?
Its total cell number is 1.67.

Which total cell number does the source give for `CCC(=O)N1CCN(c2ccc(-n3c(=O)ccc4cnc5ccc(-c6cnc7ccccc7c6)cc5c43)cc2C(F)(F)F)CC1` [Torin 1] here?
Its total cell number is -8.12.

With `O=C(CCc1ccc(O)cc1)c1c(O)cc(O)cc1O[C@@H]1O[C@H](CO)[C@@H](O)[C@H](O)[C@H]1O` [Phlorizin] as the compound, how does the total cell number read?
The total cell number was -0.632.

Which total cell number does the source give for `O=[N+]([O-])c1ccc(-c2nc(-c3ccc(F)cc3)c(-c3ccncc3)[nH]2)cc1` here?
Its total cell number is -3.

`Oc1ncnc2[nH]ncc12` [Allopurinol] was tested. Which total cell number did it give?
Its total cell number is 0.0628 ± 2.7.

How did the total cell number turn out when `CN(N=O)C(=O)NC1C(O)OC(CO)C(O)C1O` (centres undefined) [Streptozotocin (STZ)] was run?
The total cell number was 0.253.

Which total cell number does the source give for `C=C[C@]1(C)C[C@@H](OC(=O)CS[C@@H]2C[C@H]3CC[C@@H](C2)N3C)[C@]2(C)[C@H](C)CC[C@]3(CCC(=O)[C@H]32)[C@@H](C)[C@@H]1O` [Retapamulin] here?
The total cell number was -0.832.

`S=C(S)OC1CC2CC1C1CCCC21` [D-609 potassium] was tested. Which total cell number did it give?
The total cell number was -1.99.

With `CNCCCC1c2ccccc2C=Cc2ccccc21` [Protriptyline hydrochloride] as the compound, how does the total cell number read?
The total cell number was -6.64.

For `CCOC(=O)C1=C[C@@H](OC(CC)CC)[C@H](NC(C)=O)[C@@H](N)C1` [Oseltamivir phosphate], which total cell number is on record?
The total cell number was 0.306.

For `C[C@]12CCC(=O)C=C1CC[C@@H]1[C@@H]2[C@@H](O)C[C@@]2(C)[C@H]1CC[C@]2(O)C(=O)CO` [Hydrocortisone], which total cell number is on record?
The total cell number was 3.57 ± 2.3.

With `Cn1cc(CNCC2CCN(c3ncc(C(=O)NO)cn3)CC2)c2ccccc21` as the compound, how does the total cell number read?
Its total cell number is -20.1.

Which total cell number does the source give for `CC(=O)[C@H]1CC[C@H]2[C@@H]3CCC4=CC(=O)CC[C@]4(C)[C@H]3CC[C@]12C` [Progesterone] here?
The total cell number was 5.32 ± 2.5.

With `CN(C)CC/C=C1/c2ccccc2Sc2ccc(Cl)cc21` [Chlorprothixene] as the compound, how does the total cell number read?
Its total cell number is -10.6.

Which total cell number does the source give for `CN(C)CC/C=C1/c2ccccc2Sc2ccc(Cl)cc21` [Chlorprothixene hydrochloride] here?
Its total cell number is -8.65.

Which total cell number does the source give for `OC(CN1CCC(Cc2ccc(F)cc2)CC1)c1ccc(Cl)cc1` (centres undefined) [Eliprodil] here?
The total cell number was 2.32.

`CN(C)CCOC(c1ccccc1)c1ccccc1` [Diphenhydramine HCl] was tested. Which total cell number did it give?
The total cell number was -0.509.

`CN(C)CCOC(c1ccccc1)c1ccccc1` [Diphenhydramine hydrochloride] was tested. Which total cell number did it give?
Its total cell number is -1.87.

`CCOC(=O)CCNc1cc(N2CCc3ccccc3CC2)nc(-c2ccccn2)n1` was tested. Which total cell number did it give?
Its total cell number is -13.2.

How did the total cell number turn out when `CCNC(=O)c1[nH]nc(-c2cc(Cl)c(O)cc2O)c1-c1ccc(OC)cc1` was run?
The total cell number was -16.1.

Which total cell number does the source give for `C[C@H](NC(=O)/C(C#N)=C/c1cccc(Br)n1)c1ccccc1` here?
Its total cell number is -9.95.

Which total cell number does the source give for `CC(C)c1ccc(NC(=O)Cn2cnc3c2c(=O)n(C)c(=O)n3C)cc1` here?
Its total cell number is -0.803.

Which total cell number does the source give for `C[C@]12CC[C@@H]3c4ccc(O)cc4CC[C@H]3[C@@H]1CC[C@@H]2O` [Estradiol] here?
The total cell number was -1.54.

`C[C@]12CC[C@@H]3c4ccc(O)cc4CC[C@H]3[C@@H]1CC[C@@H]2O` [beta-Estradiol] was tested. Which total cell number did it give?
Its total cell number is -1.83.

Which total cell number does the source give for `O=c1[nH]c(=S)[nH]c(-c2ccccc2)c1Cc1c(O)ccc2ccccc12` [Cambinol] here?
Its total cell number is -0.967.

`CCNC(=O)Nc1ccc(-c2nc3c(c(N4CCOC[C@@H]4C)n2)CCN(C2COC2)C3)cc1` was tested. Which total cell number did it give?
Its total cell number is -8.88.
